Some of these densities may be calculated back from excess volumes.
Test: xn = mol fraction of the nth substance listed
Details: 100 kPa

For C=CC[n+]1ccn(C)c1.N#C[N-]C#N + O, which mass density (288.15 K, x1 = 0.9413) is on record?
Its mass density is 1260 kg/m3.

And the mass density (288.15 K, x1 = 0.9556)?
Its mass density is 1260.4 kg/m3.

What about the mass density (288.15 K, x2 = 0.0155) of the same compound?
Its mass density is 1261.3 kg/m3.

What about the mass density (293.15 K, x1 = 0.9556) of the same compound?
The mass density was 1256.9 kg/m3.

And the mass density (293.15 K, x1 = 0.9684)?
Its mass density is 1257.2 kg/m3.

And the mass density (293.15 K, x1 = 1)?
The mass density was 1258.2 kg/m3.

And the mass density (293.15 K, x2 = 0.0155)?
Its mass density is 1257.7 kg/m3.

And the mass density (298.15 K, x1 = 0.9256)?
Its mass density is 1252.4 kg/m3.

What about the mass density (298.15 K, x1 = 0.9413) of the same compound?
Its mass density is 1252.9 kg/m3.

What about the mass density (298.15 K, x1 = 0.9556) of the same compound?
The mass density was 1253.3 kg/m3.

And the mass density (298.15 K, x1 = 0.9684)?
Its mass density is 1253.6 kg/m3.

What about the mass density (298.15 K, x1 = 1) of the same compound?
The mass density was 1254.6 kg/m3.

And the mass density (298.15 K, x2 = 0.0155)?
Its mass density is 1254.2 kg/m3.

And the mass density (303.15 K, x1 = 0.9256)?
The mass density was 1248.8 kg/m3.

And the mass density (303.15 K, x1 = 0.9556)?
Its mass density is 1249.8 kg/m3.

And the mass density (303.15 K, x1 = 0.9684)?
Its mass density is 1250.1 kg/m3.

What about the mass density (303.15 K, x1 = 1) of the same compound?
The mass density was 1251.1 kg/m3.

And the mass density (308.15 K, x1 = 0.9256)?
Its mass density is 1245.3 kg/m3.

And the mass density (308.15 K, x1 = 0.9413)?
Its mass density is 1245.9 kg/m3.

And the mass density (308.15 K, x1 = 0.9556)?
The mass density was 1246.3 kg/m3.

What about the mass density (308.15 K, x2 = 0.0155) of the same compound?
The mass density was 1247.2 kg/m3.

And the mass density (313.15 K, x1 = 0.9256)?
Its mass density is 1241.9 kg/m3.

And the mass density (313.15 K, x1 = 0.9413)?
The mass density was 1242.4 kg/m3.

What about the mass density (313.15 K, x1 = 0.9556) of the same compound?
Its mass density is 1242.9 kg/m3.

What about the mass density (313.15 K, x1 = 1) of the same compound?
Its mass density is 1244.1 kg/m3.

What about the mass density (313.15 K, x2 = 0.0155) of the same compound?
Its mass density is 1243.7 kg/m3.

What about the mass density (318.15 K, x1 = 0.9256) of the same compound?
Its mass density is 1238.4 kg/m3.

And the mass density (318.15 K, x1 = 0.9413)?
The mass density was 1239 kg/m3.

And the mass density (318.15 K, x1 = 0.9556)?
Its mass density is 1239.4 kg/m3.

And the mass density (318.15 K, x1 = 0.9684)?
The mass density was 1239.7 kg/m3.
